From PubChem BioAssay AID588855 (National Center for Advancing Translational Sciences (NCATS), 2011)
In all, about 410,000 compounds went through this assay and about 5,000 (1.2%) were called active. This list was built around the results that the source calls inconclusive (neither active nor inactive); the mix of calls is not that of the screen. The call rests on the fitted dose curve; in most records, active means well fitted inhibition curve with a large enough effect; inconclusive means small, poorly fitted or top-dose-only effect; inactive means no such curve, though single readings can be large or run the other way. Potencies beside an inconclusive call are fits to weak or partial responses and may not hold up.

assay: qHTS for Inhibitors of TGF-b; conditions: HepG2 CAGA-GFP TGF-b/SMAD3 reporter, GFP fluorescence, 18 h, TGF-beta stimulated, 500 pg/mL final; series mostly up to 46.1 µM; further: nearly all actives have a fitted effect of over 65% in size
Method in brief: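 Inhibition of TGF-beta-driven CAGA-GFP reporter expression in HEPG2 cells is measured by cellular GFP fluorescence after 18 h stimulation with 500 pg/mL recombinant TGF-beta in 1% FBS medium at 37 degrees C.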
Potency means the concentration at half of the fitted maximal effect; tags describe the fitted curve by direction and shape.

| SMILES | Potency |
| --- | --- |
| O=C(NCc1cccs1)c1ccc(CSc2nc3cccnc3n2Cc2ccccc2F)cc1 | inconclusive: 0.112 µM [inhibitor, full curve, poor fit] |
| Cc1cccc(NC(=O)CN(C)C(=O)/C=C/c2ccccc2)c1C | inactive |
| O=P(COCCCCCOCP(=O)(c1ccccc1)c1ccccc1)(c1ccccc1)c1ccccc1 | inconclusive: 15.8 µM [inhibitor, partial curve, poor fit] |
| COc1cc(OC)cc(C(=O)N[C@H](C(=O)NC2CCCc3ccccc32)C(C)C)c1 (stereo not given in full) | inactive |
| CC1CCCN(C(=O)c2ccc(S(=O)(=O)N3CCC(c4nc5ccccc5s4)CC3)cc2)C1 (stereo not given) | inactive |
| COc1ccccc1NC(=S)N1CCN(c2nc(-c3ccccc3)cs2)CC1 | inactive |
| CN1C(=O)[C@H]2[C@@H](/C=C/c3ccccc3)N3C(=O)CN(Cc4ccc(-c5ccccc5)cc4)C(=O)[C@@]3(C)[C@H]2C1=O | inconclusive: 25.1 µM [inhibitor, single point] |
| Cc1cc(N/N=C/c2ccc(F)cc2)nc(-n2nc(C)cc2C)n1 | inconclusive: 7.08 µM [inhibitor, full curve] |
| COc1ccc2c(CN3CCN(c4ccccc4OC)CC3)cc(=O)oc2c1 | inactive |
| CN(Cc1ccc(Cl)cc1)C(=O)COC(=O)c1ccc(-c2ccc(O)cc2)cc1 | inactive |
| Cc1ccc(CNC(=O)/C=C/c2ccccc2Cl)cc1 | inconclusive: 3.55 µM [inhibitor, single point] |
| O=C(CN1CCN(S(=O)(=O)N2CCCCC2)CC1)Nc1ccc(Cl)c(Cl)c1 | inconclusive: 17.8 µM [inhibitor, single point] |
| CCc1ccc(CN(C)C(=O)c2cccc(S(=O)(=O)Nc3ccccc3OC)c2)cc1 | inconclusive: 3.16 µM [inhibitor, full curve] |
| Oc1ccc(-c2n[nH]c(=S)n2-c2ccc3c(c2)OCCO3)c(O)c1 | active: 14.1 µM |
| O=C(O)C(F)=C1c2ccccc2-c2ccccc21 | inactive |
| Cc1[nH][nH]c(=O)c1C(c1c(C)[nH][nH]c1=O)c1cn(Cc2ccc(F)cc2)c2ccccc12 | inactive |
| CCN(CC)CCNC(=O)C1CCN(c2nn3cc(-c4ccc(F)cc4)nc3s2)CC1 | inconclusive: 14.1 µM [inhibitor, partial curve, poor fit] |
| O=C(CCCN1C(=O)/C(=C/c2cccs2)SC1=S)Nc1ccc(O)cc1 | inconclusive: 11.2 µM [inhibitor, partial curve, poor fit] |
| COCCNc1nc(NCCOc2ccccc2Cl)c2sc(-c3ccccc3)cc2n1 | inconclusive: 35.5 µM [inhibitor, single point] |
| C=CCOC(=O)C1=C(C)NC(SCC)=C(C#N)C1c1ccc(Cl)cc1 (stereo not given) | active: 12.6 µM |

| SMILES | Potency |
| --- | --- |
| COc1ccc(Cl)cc1NC(=O)CN(C)C(=O)c1ccc(OCc2ccccc2)c(OC)c1 | inconclusive: 3.98 µM [inhibitor, single point] |
| O=C(Nc1ccc(Br)c2cccnc12)c1ccc(Cn2cc([N+](=O)[O-])cn2)o1 | inconclusive: 3.16 µM [inhibitor, single point] |
| O=S(=O)(c1ccc(-c2csc(-c3cccnc3)n2)cc1)N1CCCCC1 | inconclusive: 15.8 µM [inhibitor, single point] |
| CC(C)C(N)c1csc(Nc2nncc3ccccc23)n1 (stereo not given) | inconclusive: 35.5 µM [inhibitor, single point] |
| CC(C)(C)CC(C)(C)N=C1Nc2ccccc2N[C@]12C[C@H]1CCCC(=O)N3CC[C@@H](C2)[C@@H]13 | inconclusive: 35.5 µM [inhibitor, single point] |
| O=c1ccn([C@@H]2O[C@H](CNCc3c(OCc4ccccc4F)ccc4ccccc34)[C@@H](O)[C@H]2O)c(=O)[nH]1 | inconclusive: 35.5 µM [inhibitor, single point] |
| O=C(CSc1nnc(SCc2ccccc2Cl)s1)N/N=C/c1c[nH]c2ccccc12 | inconclusive: 4.47 µM [inhibitor, partial curve, poor fit] |
| COc1ccc(CNC(=O)c2cc(C3CC3)nc3c2cnn3C(C)C)cc1 | inactive |
| Cc1cccc(NC(=O)CSc2nnc3[nH]c(=O)cc(-c4ccccc4)n23)c1C | inactive |
| CCOC(=O)C1Nc2c(F)cc(C)cc2C2c3ccccc3CC12 (stereo not given) | inconclusive: 5.01 µM [inhibitor, partial curve, poor fit] |
| Cc1nc2sccn2c(=O)c1S(=O)(=O)Nc1ccc(N2CCOCC2)c(Cl)c1 | inconclusive: 25.1 µM [inhibitor, single point] |
| COc1ccc(-c2nc3ccc(NS(=O)(=O)c4ccc(C)cc4)cc3o2)cc1 | inconclusive: 35.5 µM [inhibitor, single point] |
| CC(C)N(C(=O)CSc1ccc(S(=O)(=O)N2CCCCC2)cn1)c1ccccc1 | inconclusive: 28.2 µM [inhibitor, single point] |
| CC(C)OCCCNC(=O)c1ccc(CSc2nc3cccnc3n2Cc2ccccc2)cc1 | inconclusive: 14.1 µM [inhibitor, single point] |
| C[C@@H]1CC2[C@@H]3CC[C@H]4CC(=O)CC[C@]4(C)C3=CC[C@]2(C)[C@@]1(O)C(=O)CO (stereo not given in full) | inconclusive: 4.47 µM [inhibitor, single point] |
| O=C(/C=C/c1ccccc1[N+](=O)[O-])c1ccccc1Br | inconclusive: 35.5 µM [inhibitor, single point] |
| CC1(C(=O)Nc2cccnc2)Cc2c(-c3cccc(C(F)(F)F)c3)ccnc2O1 (stereo not given) | inconclusive: 22.4 µM [inhibitor, single point] |
| CC(C)Cn1c(/C=N/Nc2nc3ccccc3[nH]2)nc2ccccc21 | inconclusive: 14.1 µM [inhibitor, partial curve, poor fit] |
| CCOC(=O)C1CCCN(C2=C(NS(=O)(=O)c3ccc(Br)cc3)C(=O)c3ccccc3C2=O)C1 (stereo not given) | inconclusive: 20 µM [inhibitor, single point] |
| COc1ccc(CCN(C)C(=O)c2c(C)nn(-c3ccccc3)c2C)cc1OC | inactive |
